The text below walks through data of PubChem BioAssay AID1159614 (National Center for Advancing Translational Sciences (NCATS), 2016).

In all, about 45,000 compounds went through this assay and about 65 (0.1%) were called active. Calls come from the whole dose curve; as a rule, active = well fitted activation curve with a large enough effect; inconclusive = small, poorly fitted or top-dose-only effect; inactive = no such curve, though single readings can be large or run the other way. This is one part of the list.

UniProt P54803, sequence (P54803 whole entry, looked up): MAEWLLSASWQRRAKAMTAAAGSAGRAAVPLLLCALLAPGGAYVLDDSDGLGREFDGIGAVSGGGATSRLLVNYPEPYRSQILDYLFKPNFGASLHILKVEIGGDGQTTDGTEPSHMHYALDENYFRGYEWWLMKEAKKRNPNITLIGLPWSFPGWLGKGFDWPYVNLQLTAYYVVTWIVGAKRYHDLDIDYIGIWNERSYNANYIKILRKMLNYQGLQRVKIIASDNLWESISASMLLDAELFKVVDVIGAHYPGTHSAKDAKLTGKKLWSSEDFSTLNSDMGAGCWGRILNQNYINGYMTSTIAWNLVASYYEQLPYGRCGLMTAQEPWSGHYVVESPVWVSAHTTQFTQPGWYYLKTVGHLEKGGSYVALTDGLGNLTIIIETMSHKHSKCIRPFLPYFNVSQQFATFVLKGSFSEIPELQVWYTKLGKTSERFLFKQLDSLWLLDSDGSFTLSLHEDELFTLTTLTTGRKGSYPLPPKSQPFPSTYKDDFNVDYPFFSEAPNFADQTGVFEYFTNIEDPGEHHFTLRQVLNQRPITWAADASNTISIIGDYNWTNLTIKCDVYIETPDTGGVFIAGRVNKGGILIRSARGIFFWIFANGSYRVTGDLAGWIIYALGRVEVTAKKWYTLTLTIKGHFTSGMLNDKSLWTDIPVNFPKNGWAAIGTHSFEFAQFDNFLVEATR

The target in this assay is Galactocerebrosidase (Homo sapiens) (UniProt P54803). The assay can be described thus: A Novel Cell-Based Assay to Identify Small Molecules for B -Galactocerebrosidase. Note: 0% is about no effect; nearly all actives have a fitted effect of over 65% in size. The conditions noted are these: 145M-Twi-hGALC-G270D cells (Twitcher mouse brain line with human GALC G270D), HMU-beta-Gal fluorescence, 48 h; series mostly up to 57.5 µM; activation: at the top concentration. The method in brief:
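Brain-derived Twitcher mouse 145M-Twi cells stably expressing human GALC-G270D or wild-type GALC, treated live, then residual GALC activity read by fluorescence of HMU-b-Gal substrate (0.1 mM final) in citrate-phosphate buffer pH 5.2 with sodium taurocholate. Signal increase indicates enhancement.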
`Cc1nn(CC(=O)NCC(C)c2ccccc2)c(=O)c2cc3ccccc3n12` (stereo not drawn): the “activation” value was inactive: -14.3%. On to `CCOc1ccc(CNC(=O)C2CCN(S(=O)(=O)c3ccc4c(ccn4C)c3)CC2)cc1`, for which the “activation” value was inactive: -0.351%. The value for `COc1cccc(CNC(=O)CCn2c(=O)c3cccn3c3cccnc32)c1OC` was inactive: -3.1%. The value for `CCOC(=O)c1ccccc1NC(=O)c1ccc2c(Cl)c3c(nc2c1)CCC3` was inactive: -3.14%; that for `Cc1ccccc1NC(=O)CSc1cn(CC(=O)N2CCCC2)c2ccccc12` was inactive: -16.8%; that for `Cc1c(C(=O)Nc2ccc(-c3nc4cc(Cl)ccc4o3)cc2)oc2ccccc12` was inactive: -4.47%. In the case of `COc1ccc(N(C)C(=O)c2nc(-c3cccc(F)c3)n3c2CCCCC3)c(OC)c1` it was inactive: -12.6%; in that of `Cc1c(Cl)cccc1NC(=O)c1cc2sccc2n1Cc1ccc(F)cc1`, inactive: -12.1%. For `CCCCn1c(=O)c2oc3ccccc3c2n(Cc2cccc(C)c2)c1=O`, the “activation” value was inactive: -13.6%. In the case of `Cc1ccc(-c2noc(-c3ccc(N4CCCCC4C)c([N+](=O)[O-])c3)n2)cc1` (stereo not drawn) it was inactive: -3%. In the case of `Cc1cc(-c2ccc(S(=O)(=O)NCc3ccccc3Cl)s2)on1` it was inactive: -30.7%; in that of `CCS(=O)(=O)N1CCC2(CC1)OC(=O)C(C)=C2C(=O)NCc1ccccc1C`, inactive: 1.15%; in that of `CCOc1ccc(NC(=O)CN2CCN(C3CCCCC3)C(=O)C2=O)cc1`, inactive: 5.27%. In the case of `Cc1ccc(S(=O)(=O)N2CCc3cc(C(=O)NCCc4ccccc4)ccc32)cc1`, the “activation” value is inactive: -14%. The value for `Cc1c(-c2cccc(NC(=O)Nc3ccccc3)c2)nc2ncccn12` was inactive: -5.71%; that for `Cc1ccc(-c2cc(-c3coc4ccccc4c3=O)c3c(n2)-c2ccccc2OC3)cc1` was inactive: -14.7%. In the case of `COc1cccc(Cn2c(=O)cc(C)c3c(C)nn(-c4ccc(C)cc4)c32)c1` it was inactive: -4.39%; in that of `Cc1noc(NS(=O)(=O)c2ccc(NC(=O)c3ccc(Br)cc3)cc2)c1C`, inactive: -6.72%. In the case of `COC(=O)c1nnn(CC(=O)NC(=O)Nc2ccccc2F)c1C(=O)OC` it was inactive: -12.3%. Turning to `Cc1c(Cl)cccc1NC(=O)c1ccc2nc(C(C)C)oc2c1`, the “activation” value was inactive: -1.83%. The value for `CCN1CCC(N(Cc2ccc(F)cc2)C(=O)Nc2cccc(C(F)(F)F)c2)CC1` was inactive: -16.5%. For the molecule `CCc1ccccc1Nc1nn2c(=O)c3ccc(C(=O)Nc4ccc(OC)cc4)cc3nc2s1`, the “activation” value was inactive: -21%. The value for `Cc1cccc(NC(=O)NCCOCCn2c(=O)oc3ccccc32)c1C` was inactive: -2.2%; that for `CC(=O)Nc1cc(-c2ccccc2)nn1Cc1cccc(Cl)c1` was inactive: -15.7%. In the case of `O=C(CSc1nc2ccccc2nc1Cc1ccccc1)N1CCN(c2ccccc2)CC1` it was inactive: -10.1%. The value for `CC(C)Oc1ccc(C(=O)Nc2ccc(-c3nc4ccccc4s3)cc2)cc1` was inactive: -18.6%; that for `COc1ccc(CCC(=O)NCc2nc3cccnc3n2Cc2ccccc2)cc1` was inactive: 6.79%. In the case of `Cc1ccc(Cl)cc1NC(=O)CCCN1C(=O)CCn2nc(-c3cn(C)c4ccccc34)cc21`, the “activation” value is inactive: -10.3%. The value for `CCOc1ccc(CCNC(=O)CCn2c(=O)c3cccn3c3cccnc32)cc1` was inactive: 2.52%; that for `O=c1cc[nH]c(=O)[nH]1` was inactive: -2.06%; that for `Cc1ccccc1Cn1c(CN2CCN(c3cc(Cl)ccc3C)CC2)nc2c1c(=O)[nH]c(=O)n2C` was inactive: -3.38%.

For the molecule `COc1ccccc1C(=O)Nc1cc(-c2ccc(C)cc2)no1`, the “activation” value was inactive: -21.6%. For the molecule `O=C(O)c1ccc(N2C(=O)c3[nH]nc(-c4ccccc4)c3C2c2cccc(F)c2)cc1` (stereo not drawn), the “activation” value is inactive: -9.17%. In the case of `CCC(=O)Nc1ccccc1-c1nc2ccccc2n(C(C)C(=O)Nc2ccc(OC)cc2)c1=O` (stereo not drawn) it was inactive: 1.27%; in that of `CN(c1ccccc1)c1ncnc2c1cnn2C`, inactive: -5.22%. Regarding `COc1ccc(C)cc1S(=O)(=O)NCC(c1ccc(N(C)C)cc1)N1CCc2ccccc21` (stereo not drawn), the “activation” value was inactive: 0.964%.

As to `COc1ccc(N2CCN(C(=O)c3cc4cc5ccc(Cl)cc5nc4o3)CC2)cc1`, the “activation” value is inactive: -11.4%. The value for `Cc1ccc(NC(=O)Cn2c(=O)oc3cc(S(=O)(=O)N4CCC(C)CC4)ccc32)cc1Cl` was inactive: -11.3%; that for `COc1cccc(C2C(=O)N(C3CCCCC3)CC(=O)N2Cc2ccc(Cl)cc2)c1` (stereo not drawn) was inactive: -12.7%. In the case of `Cc1cc(NC(=O)N2CCC(CN3CCOCC3)CC2)ccc1Br` it was inactive: 5.63%; in that of `CCNc1nc(Oc2ccc(=O)n(-c3ccccc3)n2)nc(N(C)C)n1`, inactive: -4.86%. In the case of `CCc1ccc(C2C(C(=O)Nc3ccc(Cl)cc3)=C(C)Nc3ncnn32)cc1` (stereo not drawn) it was inactive: 1.23%; in that of `Cc1ccc2c(c1)C(=O)OC(C(=O)Nc1ncc(Cc3ccccc3)s1)C2` (stereo not drawn), inactive: -14.2%. As for `Cc1ccc(C2c3[nH]c4ccccc4c3CCN2C(=O)Nc2ccc(C)c(C)c2)cc1` (stereo not drawn), the “activation” value was inactive: -29.6%. In the case of `CCOc1ccccc1C(=O)NCc1ccc2c(c1)CCN2C(C)=O` it was inactive: -19.5%; in that of `COc1ccc(C2(CNC(=O)C(=O)Nc3cccc(C(F)(F)F)c3)CCCC2)cc1OC`, inactive: -14.1%; in that of `Cc1ccc(S(=O)(=O)Nc2cccc(-c3ccc(N4CCCCC4)nn3)c2)s1`, inactive: -8.02%. In the case of `CCOC(=O)C(C)Sc1nnc2ccc3ccccc3n12` (stereo not drawn) it was inactive: -2.42%. The value for `Cc1ccc(NC(=O)C(=O)NCc2ccc(Cl)cc2)cc1` was inactive: -13.2%; that for `O=C(NCCc1ccc(Cl)cc1)c1ccc(CSCc2ccccc2Cl)o1` was inactive: -16.4%; that for `CC(=O)c1cccc(NC(=O)c2nc(-c3ccc(C)cc3)n3c2CCCCC3)c1` was inactive: -5.24%. With `Cc1cccc(NC(=O)C2CCCN(S(=O)(=O)c3cccc4nonc34)C2)c1` (stereo not drawn), the “activation” value was inactive: -9.97%. The value for `CCOc1ccc(NC(=O)N(Cc2c[nH]c3ccccc23)C2CCCCC2)cc1` was inactive: 1.87%; that for `Nc1cc(=O)nc(SCC(=O)Nc2ccc(F)cc2)n1-c1ccc(Cl)cc1` was inactive: -4.51%. The value for `Cc1oc(-c2cccc(Cl)c2)nc1CN1CCC(C(=O)NCCCN2CCN(c3cccc(Cl)c3)CC2)CC1` was inactive: -10.7%; that for `COc1cc(OC)c(NC(=O)CCn2cnc3onc(-c4ccc(F)cc4)c3c2=O)cc1Cl` was inactive: 2.96%; that for `CCCCNC(=O)c1[nH]c2ccccc2c1Sc1ccc(C)cc1` was inactive: -5.54%. With `CCC[C@@H]1C[C@@H](C(=O)N[C@@H]([C@H]2O[C@H](SC)[C@H](O)[C@@H](O)[C@H]2O)[C@@H](C)O)N(C)C1`, the “activation” value was inactive: -18%.

For `Cc1ccc(CNCc2c(C(=O)O)n(Cc3ccccc3C)c3cc(C)ccc23)cc1`, the “activation” value is inactive: -24.4%. The value for `Cc1ccc(C)c(S(=O)(=O)c2cnc(SCC(=O)Nc3ccc(F)cc3F)[nH]c2=O)c1` was inactive: -10.3%; that for `CCc1ccc(NC(=O)CSc2nccn2C2CCCC2)cc1` was inactive: -20.4%. In the case of `Cc1oc(-c2ccc(C(=O)NCc3ccc(N(C)C)cc3)cc2)nc1COc1ccccc1` it was inactive: -14.7%; in that of `CC(NC(=O)CN(C)S(=O)(=O)c1ccc2c(c1)c(=O)n(C)c(=O)n2C)c1ccccc1` (stereo not drawn), inactive: 0.548%.

Take `Cc1cc2c(=O)c(C(=O)c3ccncc3)cn(CC(=O)Nc3cccc(C)c3C)c2cc1C`: the “activation” value is inactive: -18.8%. The value for `Cc1ccc2c(c1)c(=O)c(C(=O)c1ccncc1)cn2CC(=O)Nc1c(C)cccc1C` was inactive: -19.8%; that for `Cc1cc(=O)n(CC(=O)NCCC(C)C)c2c1c(C)nn2C` was inactive: -0.222%.

For the molecule `Cn1cc(S(=O)(=O)N2CCCCC2)cc1C(=O)N1CCN(c2ccc(F)cc2)CC1`, the “activation” value was inactive: -6.63%. In the case of `CCn1cc(C(=O)OCC(=O)Nc2cc(Cl)ccc2OC)c(=O)c2ccc(C)nc21` it was inactive: -12.1%.

Turning to `COc1ccc(Br)cc1C1CC(=O)Nc2c1c(C)nn2-c1nc(C)cc(C)n1` (stereo not drawn), the “activation” value was inactive: -12.1%.

Regarding `Cc1ccc2nc(N(Cc3cccnc3)C(=O)C3CCCCC3)sc2c1`, the “activation” value is inactive: -14.4%.

Consider `Cc1cccc(NC(=O)Cn2c(=O)oc3cc(S(=O)(=O)NCc4ccccc4)ccc32)c1`, for which the “activation” value was inactive: -34.5%. In the case of `Cc1ccc(C)c(-c2csc(-c3c(N)c(C(=O)c4ccc5c(c4)OCO5)n4ccccc34)n2)c1` it was inactive: -13.5%. The value for `CCN(CC)CCNC(=O)C1CCCN(c2ncnc3onc(C)c23)C1` (stereo not drawn) was inactive: -17.4%; that for `Cc1c(C(N)=O)nnn1-c1ccc(Br)cc1` was inactive: -13.6%. For the molecule `COc1ccc(CCNC(=O)Cn2ncc3c(C)n(Cc4ccccc4F)c(C)c3c2=O)cc1OC`, the “activation” value was inactive: -9.58%. In the case of `CCOC(=O)c1c(S(=O)(=O)N2CCCC(C(=O)N3CCN(c4ccc(F)cc4)CC3)C2)c(C)n(C)c1C` (stereo not drawn) it was inactive: -21.3%. The value for `COc1ccc(CCNC(=O)Cn2nc(C)n3c(cc4occc43)c2=O)cc1OC` was inactive: 3.58%.

`COc1ccc(Br)cc1CNC(=O)C(C)n1nc(C)n2c(cc3occc32)c1=O` (stereo not drawn): the “activation” value was inactive: -0.907%.

As to `CCSc1nc2n(n1)C(c1ccc(CC)cc1)C(C(=O)Nc1ccccc1OC)=C(C)N2` (stereo not drawn), the “activation” value was inactive: -2.26%. The value for `CCC(C(=O)N1CCN(c2cc(Cl)ccc2C)CC1)n1nc(C)n2c(cc3occc32)c1=O` (stereo not drawn) was inactive: -30.2%; that for `Cc1c(Cl)cccc1-n1c(CCC(=O)O)ccc1-c1cccs1` was inactive: -12.8%. Regarding `CCc1cccc(NC(=O)CN2C(=O)CCc3cc(S(=O)(=O)N4CCOCC4)ccc32)c1`, the “activation” value is inactive: 2.08%.

On to `CCc1ccc2nc(N3CCC(C(=O)O)CC3)sc2c1`, for which the “activation” value is inactive: -18.8%. Turning to `COc1cc(CNCc2c(C(=O)O)c(C)n(Cc3cccc(Cl)c3)c2C)cc(OC)c1OC`, the “activation” value was inactive: 1.44%. In the case of `Cc1ccc(CN2CCSc3ccc(C(=O)Nc4ccc(F)cc4F)cc32)cc1`, the “activation” value was inactive: -19.1%. `COc1ccc(N2CCN(C(=O)c3cc4c(=O)n(Cc5ccccc5)ccc4nc3C)CC2)cc1`: the “activation” value is inactive: -7%. In the case of `Cc1ccc2oc(C(=O)Nc3nnc(CC(C)C)s3)cc(=O)c2c1` it was inactive: -20.8%; in that of `CCN(CC)c1cc(C)nc2nc(-c3ccc(C)cc3)nn12`, inactive: -9.83%. Turning to `COc1ccc(-c2cc(C(F)(F)F)nc(SCC(=O)NCc3ccc(OC)c(OC)c3)n2)cc1`, the “activation” value was inactive: -8.6%.

For the molecule `CCc1nnc2c(Nc3cccc(C(C)=O)c3)nc3ccccc3n12`, the “activation” value is inactive: -15.6%. On to `COc1ccccc1N(CC(=O)NCCSCc1ccccc1)S(C)(=O)=O`, for which the “activation” value is inactive: -14.1%.

As to `CCCCc1nn2c(=O)cc(COC(=O)c3cccc(OC)c3)nc2s1`, the “activation” value is inactive: 0.0817%. On to `CCCCc1nn2c(=O)cc(COC(=O)COc3ccc(C)cc3)nc2s1`, for which the “activation” value was inactive: -22%.

For the molecule `COc1ccc(C)cc1NC(=O)CN(c1ccccc1)S(=O)(=O)N(C)C`, the “activation” value was inactive: -2.86%.

Consider `CCOC(=O)CN1C(=O)c2ccccc2Sc2ncccc21`, for which the “activation” value was inactive: -4.15%. In the case of `COc1ccc(NC(=O)CN2C(=O)COc3ccc(S(=O)(=O)Nc4ccccc4)cc32)cc1` it was inactive: -9.85%; in that of `CCOc1ccc(C(=O)NCc2ccc3c(c2)CCN3C(=O)c2ccccc2)cc1`, inactive: -6.27%; in that of `COc1cccc(C(=O)Nc2cccc(OCc3cc(=O)n4cc(C)ccc4n3)c2)c1`, inactive: -5.62%.
